# Measured values published in PubChem BioAssay AID1963576 (National Center for Advancing Translational Sciences (NCATS), 2024).
# Screen size: about 46,000 compounds; about 60 (0.1%) were called active. Another 3% or so got no clear call; they are omitted. Calls come from the whole dose curve; as a rule, active = well fitted inhibition curve with a large enough effect; inconclusive = small, poorly fitted or top-dose-only effect; inactive = no such curve, though single readings can be large or run the other way. This is one part of the list.
# Assay: Primary qHTS assay for Inhibitors of ovarian cancer metastasis using an organotypic tumor microenvironment (TME) model.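 For Potency: count of GFP cancer cells still attached after washing and fixation.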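 For activity change, negative = inhibition: plate controls were DMSO wells for no effect and tomatine positive control wells for full effect.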 Note: nearly all actives have a fitted effect of over 65% in size.
# Conditions: SKOV3ip1-GFP adhesion/invasion on 3D omental model, fluorescence; series mostly up to 45.8 µM; activity change, negative = inhibition: at the top concentration
# How it was run: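 qHTS, 4-pt dose (0.36-46 umol/L); SKOV3ip1-GFP, 1,200 cells/well, no FBS; primary omental fibroblast/mesothelial co-culture 48 h pre-grown; 2 h RT + 16 h 37 C; PBS wash, 4% PFA; GFP count 488/509 nm.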
# Potency is the fitted concentration of half-maximal effect.
SMILES,"activity change, negative = inhibition",outcome,Potency
CCCSCCCNC(=O)c1ccc(C)c(NC(=O)c2nsc3ccccc23)c1,inactive: 0.355%,,
COc1cccc(Cn2nc(SC)c(S(=O)(=O)c3ccccc3)c2N(C(C)=O)C(C)=O)c1,,inactive,
Cc1cc2c(cc1NS(=O)(=O)c1ccc(Br)cc1)n(C)c(=O)c(=O)n2C,inactive: -5.29%,,
Cn1nc(-c2ccccc2F)c2cc(C(=O)NCc3ccccc3Cl)sc21,inactive: -4.08%,,
COc1ccc(N2CCN(S(=O)(=O)c3ccc(F)c(C(=O)Nc4ccccc4Cl)c3)CC2)cc1,inactive: -9.8%,,
COc1cc2c(cc1OC)C(c1cccc(Cl)c1)CC(=O)N2 (stereo not drawn),inactive: -15.9%,,
COc1ccc(OC)c(NC(=O)c2oc(=O)c3ccccc3c2-c2ccccc2)c1,inactive: -8.26%,,
COc1ccc(CC(=O)N2CCc3cc(OC)c(OC)cc3C2COc2ccc(F)cc2)cc1 (stereo not drawn),,inactive,
CC(C)(C)OC(=O)N1CCC(c2c(C(=O)NCc3cccs3)cnn2-c2cccc(F)c2)CC1,,inactive,
COc1ccc(Cl)cc1NC(=O)N1CCN(S(=O)(=O)c2ccc3c(ccn3C)c2)CC1,inactive: 14.4%,,
CCc1ccc(OCCSc2nc3ccccc3n2CC(=O)N2CCCCC2)cc1,inactive: -8.28%,,
O=C(c1ccc(F)cc1)N1CCc2c([nH]c3ccccc23)C1c1ccc(Cl)cc1 (stereo not drawn),inactive: 2.72%,,
CCOc1ccc2c(c1)c(=O)c(C(=O)c1ccc3c(c1)OCO3)cn2Cc1ccc(F)cc1,inactive: -20.3%,,
COc1cc(/C=C(\C#N)c2nc3ccc(C)cc3[nH]2)ccc1OCc1ccc(C)cc1,inactive: 6.07%,,
COc1cccc(OC)c1C(=O)NCCc1sc(-c2cccc(F)c2)nc1C,inactive: -0.329%,,
COc1ccc(S(=O)(=O)N2CCC(Oc3ccc(-n4cnnn4)cc3)CC2)cc1,inactive: -15.7%,,
CCCCNC(=O)c1cccc(NC(=O)c2nsc3ccccc23)c1,inactive: 15.9%,,
Cc1nn(-c2nc(-c3ccccc3)cc(C(F)(F)F)n2)c(C)c1Cl,inactive: -12.7%,,
CCc1nn(C(CC)C(=O)NCc2ccc(OC)c(OC)c2)c(=O)c2cc3oc(C)cc3n12 (stereo not drawn),inactive: -6.56%,,
COc1ccccc1N1CCN(c2ncnc3c2c(-c2ccccc2)cn3-c2cccc(Cl)c2)CC1,inactive: -5.11%,,
Cc1ccc(OCCSc2nc(-c3ccccc3C)nc3cc(=O)[nH]n23)cc1Cl,inactive: -3.3%,,
Cc1ccc(C)c(NC(=O)CSc2nccn2-c2cccc(C)c2C)c1,inactive: 5.77%,,
COc1ccc(C(=O)Nc2ccccc2-c2nc3ccccc3s2)cc1OC,,inactive,
CCN(C(=O)c1cn(-c2cccc(OC)c2)c(=O)c2ccccc12)c1ccccc1C,inactive: -3.2%,,

SMILES,"activity change, negative = inhibition",outcome,Potency
COc1cccc(CNC(=O)c2cnc3c(-c4ccc(F)cc4)c(C)nn3c2C)c1,,inactive,
CC(=O)Nc1ccc(NC(=O)c2nc(S(=O)(=O)Cc3ccc(F)cc3)ncc2Cl)cc1,,,active: 3.16 µM
CCc1ccc(C2C(C(=O)Nc3ccccc3OC)=C(C)Nc3c(C(=O)Nc4ccc(C)cc4)cnn32)cc1 (stereo not drawn),inactive: -20.5%,,
O=C(NCCc1ccccc1)c1cc(Nc2ccccc2)nc2ccccc12,inactive: -4.74%,,
Cc1c(-c2cccc3c(CCCOc4cccc5ccccc45)c(C(=O)O)n(Cc4cccnc4)c23)c(COc2ccc(N3CCN([S+](=O)([O-])N(C)C)CC3)cc2)nn1C,inactive: -0.314%,,
CCCC(=O)Nc1cccc(OCc2cc(=O)n3cccc(C)c3n2)c1,inactive: 5.31%,,
Cc1cc(=O)n2nc(N(C)CC(=O)NCc3ccccc3C)sc2n1,,inactive,
CCc1ccccc1Nc1nn2c(=O)c3ccc(C(=O)NCCC4=CCCCC4)cc3nc2s1,,inactive,
COCCCn1c(SCc2cccc(Cl)c2)nc2c(sc3ccccc32)c1=O,inactive: -17.7%,,
CCOCCc1nn2c(=O)cc(COC(=O)c3ccccc3OC)nc2s1,inactive: 6.61%,,
CCOC(=O)C1CCCN(C(=O)c2ccc3c(c2)sc2nc(-c4cccc(OC)c4)cn23)C1 (stereo not drawn),inactive: -9.69%,,
Cc1ccccc1-c1noc(CSc2nc3ccccc3[nH]2)n1,,inactive,
CCOc1ccc(Nc2nc(-c3cccc(Cl)c3)c3c(n2)-c2ccccc2OC3)cc1,inactive: -10.1%,,
COc1ccc(N(CC(=O)Nc2cccc(Cl)c2)S(=O)(=O)c2c(C)[nH]c(=O)[nH]c2=O)cc1,inactive: -2.43%,,
COc1ccc2c(c1)c1c(c(=O)n(Cc3ccccc3)c(=O)n1CC(=O)Nc1ccccc1OC)n2C,,inactive,
CCn1c(C)c(C)c2cc(C(=O)NCC(C)c3ccccc3)ccc21 (stereo not drawn),inactive: 6.72%,,
CCOCCc1nnc(NC(=O)C(=O)c2cc(C)n(-c3ccc(C)cc3C)c2C)s1,inactive: -1.05%,,
O=C(Nc1nc2c(F)cc(F)cc2s1)c1ccc(S(=O)(=O)N2CCc3ccccc32)cc1,inactive: -5.73%,,
O=C(c1ccc2c(Cl)c3c(nc2c1)CCCC3)N1CCN(c2ccc(Cl)cc2)CC1,,inactive,
COc1ccc(N2CCN(CCCNC(=O)C3COc4ccccc4C3)CC2)cc1 (stereo not drawn),inactive: 7.16%,,
O=C(Nc1ccc(F)cc1)Nc1csc2c1CCCC2,inactive: -22.7%,,
Cc1ccc(CNC(=O)CSc2nc3c(sc4ccccc43)c(=O)n2CCCC(=O)NCCO)cc1,inactive: 22.5%,,
CCN1C(C(=O)c2ccccc2)=C(OC(=O)COc2ccc(C)cc2)c2ccccc2S1(=O)=O,,inactive,
COC(=O)c1ccc(N2C(=O)Cc3cc(OC)c(OC)cc3C2c2ccc(F)cc2)cc1 (stereo not drawn),inactive: 2.82%,,

SMILES,"activity change, negative = inhibition",outcome,Potency
CCOc1ccc(-n2c(=O)c3c4c(sc3n(CC(=O)NC(C)CC)c2=O)CCCCC4)cc1 (stereo not drawn),,inactive,
COc1cc(-c2nc3sccn3c2Nc2c(C)cccc2C)ccc1O,inactive: 8.93%,,
Cn1ncc2c(N3CCN(c4ccc(F)cc4)CC3)ncnc21,inactive: 2.34%,,
O=C(Cc1ccc(-c2ccccc2)cc1)NCCS(=O)(=O)N1CCN(c2ccc(F)cc2)CC1,inactive: -19.8%,,
Cc1c(CCNC(=O)c2c(F)cccc2F)sc2nc(-c3ccc(F)cc3)nn12,inactive: 15.1%,,
O=C(Nc1nnc(-c2ccco2)o1)c1cc(-c2ccccc2)nc2ccccc12,inactive: -1.45%,,
CCOc1ccc(CCn2c3c(c(=O)[nH]c2=O)C(NC(=O)c2cccc(F)c2)(C(F)(F)F)C(=O)N3)cc1OCC (stereo not drawn),,inactive,
CC(=O)N1CCCC1c1nc2ccccc2n1Cc1ccccc1Cl (stereo not drawn),inactive: -2.06%,,
CCn1c(C(=O)NCCc2ccc(S(N)(=O)=O)cc2)cc2sc(Cl)cc21,inactive: -0.841%,,
CC(=O)N1CCCc2ccc(NS(=O)(=O)c3cccc(Cl)c3)cc21,,inactive,
O=C1Cc2cc(S(=O)(=O)N3CCN(c4cccc(Cl)c4)CC3)ccc2N1,inactive: -5.4%,,
CCOC(=O)c1cnc2c(ccc3ccccc32)c1Nc1ccc(C(C)=O)cc1,inactive: -15.3%,,
COc1cccc(CSc2nc3ccncc3n2CC(=O)Nc2ccc(OC)c(OC)c2OC)c1,,inactive,
Cc1cn(-c2cc(NC(=O)c3ccc(C)c(Nc4nccc(-c5cccnc5)n4)c3)cc(C(F)(F)F)c2)cn1,inactive: 9.81%,,
Cc1cccc(OCc2nc(CC(=O)Nc3ccc(Cl)cc3)cs2)c1,inactive: -8.39%,,
CCC1CN(C(=O)N2CCC(C(=O)NCCc3ccc(OC)cc3OC)CC2)c2cc(C)ccc2O1 (stereo not drawn),inactive: -1.67%,,
Cc1cccc(C)c1-n1ncc(C(=O)NCCCN2CCC(C)CC2)c1C1CCN(C(=O)OC(C)(C)C)CC1,inactive: -5.63%,,
Cc1cc(Nc2ccc(Br)cc2)nc(C)n1,inactive: -22.5%,,
CCc1ccccc1NC(=O)C1CCN(S(=O)(=O)c2cn(C)cn2)CC1,inactive: -1.88%,,
CCOC(=O)c1sc2ccccc2c1S(=O)(=O)NCc1ccccc1OC,inactive: 1.35%,,
Cc1cc(C)nc(-n2nc(C)c3c2N(Cc2ccccc2F)C(=O)CC3c2ccc(Cl)cc2)n1 (stereo not drawn),inactive: -11.1%,,
COc1cccc(NC(=O)CCN2C(=O)c3ccccc3Sc3ncccc32)c1,,inactive,
CCc1cc2c(cc3c(=O)n(CC(=O)NC(C)c4ccccc4)ncn32)s1 (stereo not drawn),,inactive,
O=S(=O)(c1ccc(Cl)cc1)c1nc(-c2cccs2)oc1N1CCCCC1,inactive: -2.5%,,

SMILES,"activity change, negative = inhibition",outcome,Potency
COc1ccccc1CNC(=O)Cc1csc2nc(-c3ccc(F)cc3)cn12,inactive: -5.62%,,
O=C1C(c2ccc(F)cc2)N(CCc2ccc(Cl)cc2)C(=O)CN1C1CCCCC1 (stereo not drawn),,inactive,
CCc1ccc(S(=O)(=O)Nc2cccc(-c3ccc(N4CCCCC4)nn3)c2)s1,inactive: -0.386%,,
Cc1nnc(N2CCN(C(=O)NCCC(C)C)CC2)c2nn(-c3ccc(Cl)cc3)c(C)c12,inactive: -5.11%,,
CCOc1cc(C(=O)Nc2cc3c(cc2N2CCCC2)n(C)c(=O)c(=O)n3C)cc(OCC)c1OCC,,inactive,
O=C(Nc1sc2c(c1C(=O)NCc1ccco1)CCCC2)c1cc(=O)c2cc(Cl)ccc2o1,inactive: 1.19%,,
CCC(=O)N1CCc2cc(Br)cc(S(=O)(=O)NCCc3cccc(C)c3)c21,inactive: -2.12%,,
Cc1cccc(C(=O)Nc2cc3c(cc2C)n(C)c(=O)n3C)c1,,inactive,
COCc1nc2ccccc2n1Cc1ccc(C(C)(C)C)cc1,inactive: 3.65%,,
CC(=O)Nc1ccc(NC(=O)c2ccc3c(c2)N(Cc2cccc(Cl)c2)C(=O)c2ccccc2S3=O)cc1 (stereo not drawn),inactive: -12.2%,,
Cc1ccc(Cn2c(=O)n(Cc3ccccc3)c(=O)c3oc4ccccc4c32)cc1,inactive: -10.2%,,
CC(=O)N1CCc2cc(S(=O)(=O)NC(Cc3ccccc3)C(=O)NCc3ccccc3)ccc21 (stereo not drawn),inactive: 8.92%,,
CC(=O)N1CCc2c(sc3c2c(=O)n(-c2ccccc2)c(=O)n3CC(=O)c2ccccc2)C1,inactive: 20.6%,,
O=C(NC1CCN(Cc2ccccc2)CC1)c1ccc(Cn2c(=O)c3ccccc3n(Cc3ccc(Cl)cc3)c2=O)cc1,inactive: -9.49%,,
COc1ccc(NC(=O)Nc2cc(-c3cn4cccnc4n3)ccc2C)cc1,,inactive,
Cc1ccc2c(c1)-c1nc(-c3ccc4c(c3)NC(=O)CO4)cc(-c3ccccc3)c1CO2,,inactive,
CC(=O)N1CCC(N(Cc2ccc(C)o2)C(=O)Nc2cccc(C(F)(F)F)c2)CC1,inactive: -7.61%,,
Cc1ccc(C)c(NC(=O)CN2C(=O)CCc3cc(S(=O)(=O)N4CCCCC4)ccc32)c1,,inactive,
COc1ccccc1NC(=O)Cn1c(C)cc(C)c(C#N)c1=O,,inactive,
O=C(CCCCn1c(=O)c2ccccc2n(Cc2cccc(F)c2)c1=O)NCCc1ccccc1,inactive: -3.38%,,
CC(C)(C)OC(=O)N1CCC(c2c(C(=O)N3CCN(c4ccccn4)CC3)cnn2-c2ccc(F)cc2F)CC1,inactive: 46.5%,,
